# In publication PMC11995724, “Antibiotic target discovery by integrated phenotypic and activity-based profiling of electrophilic fragments” (Cell chemical biology, 2025):
# Screen size: about 3,200 compounds; about 110 (3.4%) showed an effect of 50% or more. Some of the results follow.
# Test system: T1, V. cholerae SAD30
# T1 construct: SAD30
# Set-up: species or system S. aureus MSSA476 (TSB) or V. cholerae SAD30 (LB); 384-well bacterial growth screen at 25 uM, OD600 relative to DMSO control
# Conditions: relative growth, OD600, LB; 25 µM; inhibitor
row,SMILES,% of control remaining [%]
1,"CC(Cl)C(=O)N1CCN(Cc2cc(=O)n3ccsc3n2)CC1 (stereo not shown) [6-P17, 7-{[4-(2-chloropropanoyl)piperazin-1-yl]methyl}-5H-[1,3]thiazolo[3,2-a]pyrimidin-5-one]",97.5258
2,"Cc1cc(NC(=O)CCl)c([N+](=O)[O-])cc1C [4-F21, 2-chloro-N-(4,5-dimethyl-2-nitrophenyl)acetamide]",103.515
3,"Cc1ccc(NC(=O)C(C#N)=Cc2ccc(C(C)(C)C)cc2)cc1C [9-E04, 3-(4-tert-butylphenyl)-2-cyano-N-(3,4-dimethylphenyl)prop-2-enamide]",90.2107
4,"N#CC(=Cc1ccc(OC(F)F)c(Cl)c1)C(N)=O [9-L12, 3-[3-chloro-4-(difluoromethoxy)phenyl]-2-cyanoprop-2-enamide]",84.6363
5,"COc1ccc2ccccc2c1-c1cc(CNC(=O)C(C)Cl)on1 (stereo not shown) [7-E08, 2-chloro-N-{[3-(2-methoxynaphthalen-1-yl)-1,2-oxazol-5-yl]methyl}propanamide]",61.8536
6,"C=CC(=O)N1CCN(c2nc3ccccc3o2)CC1 [1-K05, 1-[4-(1,3-benzoxazol-2-yl)piperazin-1-yl]prop-2-en-1-one]",92.6756
7,"CC(Cl)C(=O)NCCc1ccccc1 (stereo not shown) [4-K14, 2-chloro-N-(2-phenylethyl)propanamide]",95.0615
8,"C=CC(=O)NCCn1nnc2ccccc21 [2-N11, N-[2-(1H-1,2,3-benzotriazol-1-yl)ethyl]prop-2-enamide]",85.8728
9,"C=CC(=O)N1CCC(C(=O)N(CC)Cc2occc2C)CC1 [2-L08, N-ethyl-N-[(3-methylfuran-2-yl)methyl]-1-(prop-2-enoyl)piperidine-4-carboxamide]",90.3503
10,"CC(Cl)C(=O)NCc1cccc(N2C(=O)NC3(CCCC3)C2=O)c1 (stereo not shown) [7-O18, 2-chloro-N-[(3-{2,4-dioxo-1,3-diazaspiro[4.4]nonan-3-yl}phenyl)methyl]propanamide]",81.6785
11,"CC(=O)Nc1ccc(C=C(C#N)C(=O)Nc2ccccc2Cl)cc1 [8-M11, N-(2-chlorophenyl)-2-cyano-3-(4-acetamidophenyl)prop-2-enamide]",71.7199
12,"Cl.O=C(CCl)NC1CCN(Cc2ccccc2)CC1 [5-E19, N-(1-benzylpiperidin-4-yl)-2-chloroacetamide hydrochloride]",100.368
13,"CC(Cl)C(=O)NCCc1cccs1 (stereo not shown) [4-D14, 2-chloro-N-[2-(thiophen-2-yl)ethyl]propanamide]",102.308
14,"C=CC(=O)NCc1ccc(C(=O)N2CCC[C@@H]2C(N)=O)cc1 [3-L22, (2R)-1-{4-[(prop-2-enamido)methyl]benzoyl}pyrrolidine-2-carboxamide]",108.322
15,"CC(Cl)C(=O)NC(C)c1nnc(-c2cccc(F)c2)s1 (stereo not shown) [5-N15, 2-chloro-N-{1-[5-(3-fluorophenyl)-1,3,4-thiadiazol-2-yl]ethyl}propanamide]",95.6604
16,"C=CC(=O)NCc1cc(C2CC2)nn1C [1-L10, N-[(3-cyclopropyl-1-methyl-1H-pyrazol-5-yl)methyl]prop-2-enamide]",107.458
17,"CCN1C(=O)CSC1=C(C#N)C(N)=O [8-M09, 2-cyano-2-(3-ethyl-4-oxo-1,3-thiazolidin-2-ylidene)acetamide]",74.0313
18,"CCCn1c(C)cc(C=C(C#N)C(=O)Nc2cccc(F)c2)c1C [8-L19, 2-cyano-3-(2,5-dimethyl-1-propyl-1H-pyrrol-3-yl)-N-(3-fluorophenyl)prop-2-enamide]",76.4786
19,"CN1c2ccccc2C(NC(=O)CCl)CS1(=O)=O (stereo not shown) [7-L04, 2-chloro-N-(1-methyl-2,2-dioxo-3,4-dihydro-1H-2lambda6,1-benzothiazin-4-yl)acetamide]",88.9476
20,"N#CC(=Cc1cccc(Cl)c1Cl)C(=O)NCc1ccccc1 [8-L04, N-benzyl-2-cyano-3-(2,3-dichlorophenyl)prop-2-enamide]",73.0795
21,"Cc1cc(C(=O)C(C)Cl)c(C)n1-c1ccc(OC(F)F)cc1 (stereo not shown) [10-E10, 2-chloro-1-{1-[4-(difluoromethoxy)phenyl]-2,5-dimethyl-1H-pyrrol-3-yl}propan-1-one]",97.7206
22,"C=CC(=O)Nc1ccc2nc(O)n(C3CC3)c2c1 [2-K16, N-(1-cyclopropyl-2-hydroxy-1H-1,3-benzodiazol-6-yl)prop-2-enamide]",86.7992
23,"C=CC(=O)NC(C)c1cc2cnccc2o1 (stereo not shown) [1-B08, N-(1-{furo[3,2-c]pyridin-2-yl}ethyl)prop-2-enamide]",100.343
24,"CC(NC(=O)CCl)c1cn(C)c2cc(Cl)ccc12 (stereo not shown) [5-E11, 2-chloro-N-[1-(6-chloro-1-methyl-1H-indol-3-yl)ethyl]acetamide]",94.8198
25,"CC(Cl)C(=O)N(C)C1CCS(=O)(=O)CC1 (stereo not shown) [6-J21, 2-chloro-N-(1,1-dioxo-1lambda6-thian-4-yl)-N-methylpropanamide]",101.469
26,"C=CC(=O)N1CCn2c(nnc2C(F)(F)F)C1 [1-D18, 1-[3-(trifluoromethyl)-5H,6H,7H,8H-[1,2,4]triazolo[4,3-a]pyrazin-7-yl]prop-2-en-1-one]",101.325
27,"N#CC(=Cc1c[nH]nc1-c1ccccc1F)C(=O)Nc1ccccc1F [8-H06, 2-cyano-N-(2-fluorophenyl)-3-[3-(2-fluorophenyl)-1H-pyrazol-4-yl]prop-2-enamide]",65.8736
28,"CC(Cl)C(=O)NCCc1cnc2c(Cl)cnn2c1 (stereo not shown) [7-M18, 2-chloro-N-(2-{3-chloropyrazolo[1,5-a]pyrimidin-6-yl}ethyl)propanamide]",78.5065
